# According to PubChem BioAssay AID686978 (National Center for Advancing Translational Sciences (NCATS), 2013):
# Screen size: about 420,000 compounds; about 64,000 (15%) were called active. This list was built around the results that the source calls inconclusive (neither active nor inactive); the mix of calls is not that of the screen. Calls follow the shape of the dose curve; as a rule, active = well fitted inhibition curve with a large enough effect; inconclusive = small, poorly fitted or top-dose-only effect; inactive = flat fitted curve, though single readings scatter. No potency is given beside an inconclusive call; the fits are too rough.
# Test: qHTS for Inhibitors of human tyrosyl-DNA phosphodiesterase 1 (TDP1): qHTS in cells in absence of CPT; also: nearly all actives have a fitted effect of over 55% in size
# Details: DT40 Tdp1-/- hTDP1 cells, no CPT, ATP luminescence, 48 h; activity change, negative = growth inhibition: at 46.2 µM (top of the series) unless noted
# Summary of the method: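 A cellular qHTS used chicken DT40 cells lacking endogenous Tdp1 but carrying stably transfected human TDP1. Compounds were applied without camptothecin, and cell growth kinetics were judged by ATP-dependent luminescence after ≥48 hr.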
# % is scaled to controls: 0 for no effect and ±100 for the full control effect; potency is read from the fitted curve at half-maximal effect; tags tell the direction and shape of the fitted curve.
SMILES,Potency,"activity change, negative = growth inhibition"
Cc1ccc2c(c1)N(C(=O)N1CCC(C(=O)NCc3ccccc3C)CC1)CC(C)O2 (configuration not stated),active: 16.4 µM,
O=S(=O)(c1cnccc1N1CCN(/N=C/c2ccccc2)CC1)N1CCCCC1,"inconclusive [inhibitor, partial curve]",
Cc1oc2ncn(CC(C)C)c(=O)c2c1C(=O)N(CCN(C)C)Cc1ccccc1,inactive,
CCCn1c(C2CCCN2c2nc(C)cs2)nc2cc(Cl)c(Cl)cc21 (configuration not stated),"inconclusive [inhibitor, partial curve]",
COc1ccc(-c2oc3ccccc3c(=O)c2OC(C)=O)cc1,active: 16.4 µM,
Cc1ccc(CNC(=O)CN(C)C2=NS(=O)(=O)c3ccccc32)cc1,active: 9.2 µM,
CC(=O)N1CC(C)Sc2ccc(S(=O)(=O)NCc3ccccc3Cl)cc21 (configuration not stated),,inconclusive: -30.2% [inhibitor]
COc1cccc(C2C(C(=O)Nc3ccc(Cl)cc3)=C(C)Nc3nc4ccccc4n32)c1OC (configuration not stated),"inconclusive [inhibitor, single point]",
COc1ccc(OC)c(N=Nc2c(O)c3ccccc3[nH]c2=O)c1,active: 18.4 µM,
Cc1cccc(NC(=O)C(=O)NCc2ccc3c(c2)OCO3)c1C,inactive,
Cc1ccc(S(=O)(=O)NC(CC(=O)O)c2cccs2)cc1 (configuration not stated),inactive,
FC(F)Sc1ccc(Nc2ncnc3nc[nH]c23)cc1,"inconclusive [inhibitor, partial curve]",
COC(=O)c1cc(S(=O)(=O)NCC(C)c2ccccc2)c[nH]1 (configuration not stated),inactive,
O=C1C[C@@H]2c3c(cccc3CN1Cc1ccccc1)C[C@@H](O)[C@H]2O,inactive,
COCCN(C(=O)c1ccccc1)c1nc(-c2ccc(OC)cc2)cs1,"inconclusive [inhibitor, partial curve]",
COc1ccc(N2CCN(C(=O)C3CCCN(C(=O)c4cc5sccc5n4C)C3)CC2)cc1 (configuration not stated),"inconclusive [inhibitor, single point]",
Cc1nn(-c2ccccc2)c(N)c1C(c1ccccc1)c1c(C)nn(-c2ccccc2)c1N,inactive,
CN(C)c1ccc(C(=O)OCC(=O)NC2CCCCCC2)cc1,"inconclusive [inhibitor, single point]",
CC(=O)N1c2ccc(S(=O)(=O)NCc3ccccc3Cl)cc2CC1C (configuration not stated),active: 7.31 µM,
O=C(/C=C/c1cccc(Cl)c1)NCc1cccs1,"inconclusive [inhibitor, single point]",
O=C(O)CCNc1ccc2c(c1)OCCO2,inactive,
C[C@H](CO)N1C[C@H](C)[C@@H](CN(C)S(=O)(=O)c2cccs2)OCc2cnnn2CCCC1=O,,inconclusive: -31.9% [inhibitor]
